Experimental data published in PubChem BioAssay AID485360 (National Center for Advancing Translational Sciences (NCATS), 2010).
Among all 230,000 compounds or so, about 1,500 (0.65%) were called active. This list was built around the results that the source calls inconclusive (neither active nor inactive); the mix of calls is not that of the screen. The call rests on the fitted dose curve; in most records, active means well fitted inhibition curve with a large enough effect; inconclusive means small, poorly fitted or top-dose-only effect; inactive means no such curve, though single readings can be large or run the other way. Potencies beside an inconclusive call are fits to weak or partial responses and may not hold up.

What follows are compounds tested against Lethal(3)malignant brain tumor-like protein 1 (Homo sapiens) (UniProt Q9Y468) (assay: qHTS Assay for the Inhibitors of L3MBTL1). Conditions: AlphaScreen L3MBTL1–H3K9me1 peptide binding; series mostly up to 57.1 µM.
Chain of UniProt Q9Y468 (Q9Y468 whole entry, looked up): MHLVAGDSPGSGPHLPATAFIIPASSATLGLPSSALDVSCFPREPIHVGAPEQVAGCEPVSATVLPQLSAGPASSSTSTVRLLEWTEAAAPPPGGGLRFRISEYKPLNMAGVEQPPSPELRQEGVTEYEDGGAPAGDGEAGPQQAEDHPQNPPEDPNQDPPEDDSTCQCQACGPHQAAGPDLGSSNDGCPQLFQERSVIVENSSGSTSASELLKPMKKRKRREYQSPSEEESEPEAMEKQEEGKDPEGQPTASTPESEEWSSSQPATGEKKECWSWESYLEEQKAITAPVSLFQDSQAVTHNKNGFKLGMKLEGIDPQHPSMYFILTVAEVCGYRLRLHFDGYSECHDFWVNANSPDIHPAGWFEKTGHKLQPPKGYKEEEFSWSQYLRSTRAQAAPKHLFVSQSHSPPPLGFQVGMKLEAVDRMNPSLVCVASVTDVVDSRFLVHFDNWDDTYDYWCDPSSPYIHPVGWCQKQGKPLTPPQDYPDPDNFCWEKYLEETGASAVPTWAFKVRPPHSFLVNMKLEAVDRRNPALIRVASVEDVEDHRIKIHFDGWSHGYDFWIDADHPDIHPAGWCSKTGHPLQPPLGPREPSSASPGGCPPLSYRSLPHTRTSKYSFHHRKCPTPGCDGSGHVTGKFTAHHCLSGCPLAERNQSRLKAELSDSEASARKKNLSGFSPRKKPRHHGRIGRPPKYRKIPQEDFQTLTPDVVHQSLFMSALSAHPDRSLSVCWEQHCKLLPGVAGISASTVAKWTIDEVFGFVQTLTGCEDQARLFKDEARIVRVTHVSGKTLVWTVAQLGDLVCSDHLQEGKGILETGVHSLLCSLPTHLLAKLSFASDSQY
Procedure, shortened: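 AlphaScreen proximity signal between nickel-chelate acceptor and streptavidin donor beads (final 10 ug/mL) reports binding of 50 nM L3MBTL1 to 75 nM biotin-H3 K9me1 peptide; complex incubated with compounds 30 min at room temperature; cefsulodin titration as control.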
Further: nearly all actives have a fitted effect of over 60% in size.
Potency means the concentration at half of the fitted maximal effect; tags describe the fitted curve by direction and shape.

| Compound | Potency |
| --- | --- |
| CC(=C/C(=O)O)/C=C/c1ccco1 | inconclusive: 31.6 µM [inhibitor, single point] |
| COc1ccc(C2=Nn3c(nnc3-c3ccccn3)SC2)cc1 | inconclusive: 25.1 µM [inhibitor, single point] |
| CN(Cc1nc(-c2cnccn2)no1)Cc1cccc2ccccc12 | inconclusive: 6.31 µM [inhibitor, single point] |
| CCC1CCCCN1C(=O)c1c(-c2ccccc2)noc1C (stereo unspecified) | inconclusive: 0.562 µM [inhibitor, full curve, poor fit] |
| Cc1c(Cl)cccc1NC(=O)Cn1c(CCC(=O)O)ccc1-c1ccc(Cl)cc1 | inactive |
| COc1ccc(Nc2nc(NN)nc(Nc3ccc(OC)cc3)n2)cc1 | inconclusive: 7.94 µM [inhibitor, partial curve] |
| O=C(/C(=C/O)N=Nc1ccccc1)c1ccc(Cl)cc1 | inconclusive: 10 µM [inhibitor, partial curve] |
| CCCCn1nc(C(=O)Oc2ccc3c(C)cc(=O)oc3c2)c2ccccc2c1=O | inactive |
| CCn1c(SCC(=O)N2CCOCC2)nc2c(c1=O)SC(C)C2 (stereo unspecified) | inconclusive: 7.08 µM [inhibitor, single point] |
| CC(C)C[C@H](NC(=O)N1CCn2c1nc1ccccc12)C(=O)N[C@H](Cc1ccccc1)C(=O)O | inactive |
| CN(C)c1ccc(/C=C/C=C2/SC(=S)N(c3ccccc3)C2=O)cc1 | active: 4.47 µM |
| CCOc1cccc(CNc2ccc(O)cc2)c1OCc1ccc(Cl)cc1 | inconclusive: 31.6 µM [inhibitor, partial curve] |
| O=C(C[n+]1ccccc1)Nc1c(Cl)cc(Cl)cc1Cl | active: 11.2 µM |
| CCNCC(=O)N1c2ccccc2CCc2ccc(NC(C)=O)cc21 | inconclusive: 8.91 µM [inhibitor, full curve, poor fit] |
| CCN(CC)S(=O)(=O)c1cccc(C(=O)NCCCn2ccnc2)c1 | inactive |
| Clc1ccccc1Cn1nnc(-c2ccccc2)n1 | inconclusive: 3.55 µM [inhibitor, single point] |
| COc1ccc(CCNC(=O)COC(=O)c2cnc(Cl)c(Cl)c2)cc1 | inactive |
| CC1CC(C)(C)n2c(O)c(N=NC(N)=S)c3cccc1c32 (stereo unspecified) | inconclusive: 10 µM [inhibitor, partial curve] |
| O=[N+]([O-])c1ccc(/C([O-])=C(/C(=S)NCc2ccco2)[n+]2ccccc2)cc1 | inconclusive: 39.8 µM [inhibitor, single point] |
| O=C(CSc1nc2c(c(=O)n1-c1ccccc1)SCC2)N1CCOCC1 | inactive |
| Nc1c(Cl)cc(C2=NCCn3nc4ccccc4c32)cc1Cl | inconclusive: 7.08 µM [inhibitor, single point] |
| Cc1noc(C)c1COC(=O)c1ccccc1NC(=O)c1ccco1 | inconclusive: 0.316 µM [inhibitor, full curve, poor fit] |
| COc1ccc(NC(=O)CN(C)CC(=O)NCC2CCCCC2)cc1 | inactive |

| Compound | Potency |
| --- | --- |
| COc1ccc2c(c1)C(C)=CC(C)(C)N2C(=O)Nc1ccccc1 | inconclusive: 39.8 µM [inhibitor, single point] |
| Oc1ccc(COCc2ccc(F)cc2)c2cccnc12 | inconclusive: 31.6 µM [inhibitor, single point] |
| CCOc1c(O)ccc(/C=C2\SC(=S)NC2=O)c1[N+](=O)[O-] | inconclusive: 10 µM [inhibitor, partial curve] |
| O=c1[nH]c(/C=C\c2cccs2)nc(O)c1[N+](=O)[O-] | inconclusive: 39.8 µM [inhibitor, single point] |
| O=C(CSc1ccc2nnc(-c3ccccn3)n2n1)NCc1ccco1 | inconclusive: 3.55 µM [inhibitor, full curve] |
| C[C@H](NS(=O)(=O)c1ccc(Cl)c(Cl)c1)C(=O)OCc1cc(=O)n2cc(Br)ccc2n1 | inconclusive: 35.5 µM [inhibitor, single point] |
| Cc1nc(-c2nnc(SCC(=O)Nc3cc(Cl)cc(Cl)c3)n2C)cs1 | inactive |
| CNc1cccccc1=S | active: 3.98 µM |
| COc1cccc2sc(N(CCCN(C)C)C(=O)c3sc4ccccc4c3Cl)nc12 | inactive |
| O=c1/c(=C\c2ccc(O)cc2)sc2n1C(c1ccccc1)C(c1ccccc1)=NN=2 (stereo unspecified) | inconclusive: 10 µM [inhibitor, full curve, poor fit] |
| O=C(N/N=C/c1ccccn1)c1cccnc1 | inconclusive: 44.7 µM [inhibitor, partial curve, poor fit] |
| Cc1ccc(-c2cc(C(=O)Nc3ccccc3C)c3ccccc3n2)o1 | inconclusive: 25.1 µM [inhibitor, single point] |
| CCOc1ccccc1NC(=O)CN(C)S(=O)(=O)c1cccc2nsnc12 | inactive |
| c1ccc(N2CCN(c3nc(-c4ccccn4)nc4ccccc34)CC2)cc1 | inconclusive: 3.55 µM [inhibitor, full curve] |
| Cc1cccc(C(=O)N2CCN(C(=O)c3cccc(C)c3)C(C)C2)c1 (stereo unspecified) | inconclusive: 39.8 µM [inhibitor, single point] |
| COCCCN=C1NN=C(c2cc(C)n(Cc3ccco3)c2C)CS1 | inactive |
| c1ccc(-c2ccc(C3=Nn4c(nnc4-c4cccs4)SC3)cc2)cc1 | inconclusive: 15.8 µM [inhibitor, partial curve] |
| O=C1Nc2ccc(Br)cc2C12NNc1ccccc1O2 (stereo unspecified) | inconclusive: 22.4 µM [inhibitor, single point] |
| Nc1nc2n(n1)C(c1ccc(Cl)cc1)CC(c1ccc(F)cc1)N2 (stereo unspecified) | inconclusive: 39.8 µM [inhibitor, single point] |
| COc1ccc(OCC(=O)OCCNC(=O)c2cccnc2)cc1 | inactive |
| COc1ccc(NC(=O)CSc2nnc(-c3ccccn3)n2N)cc1Cl | inconclusive: 22.4 µM [inhibitor, partial curve] |
| Cc1ccc(NC(=O)CN2C(=O)N/C(=C/c3ccc(N4CCOCC4)cc3)C2=O)cc1 | inconclusive: 6.31 µM [inhibitor, single point] |
| C#CCOCCOCCOCCNc1nc(N2CCN(C(=O)CCCCCCCCCCNC(=O)[C@H]([C@@H](C)CC)n3cc(CCCCN=C(N)N)nn3)CC2)nc(N2CCN(C(=O)CCCCCCCCCCNC(=O)[C@H](CO)n3cc(CCCSC)nn3)CC2)n1 | inconclusive: 31.6 µM [inhibitor, single point] |
